Among all 48,000 compounds or so, about 120 (0.25%) were called active. Roughly 4% stayed inconclusive and do not appear here. Calls come from the whole dose curve; as a rule, active = well fitted activation curve with a large enough effect; inconclusive = small, poorly fitted or top-dose-only effect, or another doubt; inactive = no such curve, though single readings can be large or run the other way. The list shows a part of the results.
assay: Primary qHTS for Identification of Small Molecule Activators of Huntingtin-Antisense Promoter Activity; details: HEK293 HTT-AS promoter firefly luciferase reporter, 24 h; series mostly up to 57.5 µM; activity change, positive = activation: at the top concentration; note: nearly all actives have a fitted effect of over 55% in size
Summary of the method: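 HEK293 luciferase promoter-reporter cells (2,500/well) plated 24 h, then compounds added at up to 57.5 uM final for 24 h at 37 °C. Firefly luminescence by Dual-Glo, normalized to vehicle (0%) and zero RLU (-100%).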

Activity change, positive = activation, inactive:
COc1ccc(NC(=O)c2cccn2-c2nnc(N3CCCCC3)s2)c(OC)c1 8.66%
CCOC(=O)COc1cc(C)c(Cl)cc1C(=O)c1ccn2nc(-c3ccc(OC)cc3)cc2n1 -5.34%
CN(CCCN1c2ccccc2CCc2ccccc21)CC(=O)c1ccc(Cl)cc1 2.58%
CCc1nn(CC(=O)NCCc2ccc(OC)c(OC)c2)c(=O)c2cc3occc3n12 -13.5%
CCOC(=O)c1ccc(NC(=O)CSc2nc(-c3ccc(F)cc3)cc(C(F)(F)F)c2C#N)cc1 -4.26%
COc1ccccc1NC(=O)c1ccc(-c2nc(COc3ccc(C)cc3)c(C)o2)cc1 -23.1%
Cc1ccc(NC(=O)Nc2c(C)n(C)n(-c3ccccc3)c2=O)c(Cl)c1 -5.73%
CCOc1ccc(NC(=O)C2=C(C)C(=O)OC23CCC(C)CC3)cc1 (configuration not stated) -25.6%
CC(C)CCNC(=O)c1cc(-c2ccc(Br)s2)nc2ccccc12 -1.35%
COc1ccc(-c2cc(C)no2)cc1S(=O)(=O)N1CCCC(C)C1 (configuration not stated) -22.8%
Cc1cccc(NC(=O)c2ccc3[nH]c(C)cc(=O)c3c2)c1 10.1%
Cn1c(=O)[nH]c(=O)c2c1nc(CN1CCN(c3ccccc3)CC1)n2Cc1c(F)cccc1Cl -18.3%
CCC(=O)N1CCc2cc(S(=O)(=O)NC(Cc3ccccc3)C(=O)NCc3ccccc3OC)ccc21 (configuration not stated) -2.1%
CC(C)(C)c1ccc(C(=O)Nc2ccc(NC(=O)c3ccc(Cl)c(Cl)c3)cc2)cc1 -7.88%
COc1cccc(NC(=O)Nc2ccc3snnc3c2)c1 2.41%
CCC(Oc1ccccc1)C(=O)Nc1cc(-c2ccccc2F)nn1-c1ccccc1 (configuration not stated) -16.7%
CCN1CCN(c2nc3c(S(=O)(=O)c4ccc(C)cc4)nnn3c3ccsc23)CC1 -17.9%
CCN(CC)S(=O)(=O)c1ccc2c(c1)N(CC(=O)NCCc1ccccc1)C(=O)CO2 -10.9%
COc1cc(NC(=O)C(CC(C)C)N2Cc3ccccc3C2=O)cc(OC)c1 (configuration not stated) -9.95%
CCOc1ccc(NC(=O)CSc2nc3ccsc3c(=O)n2CC)cc1 -29.4%
CCN(CC)C(=O)c1ccc2c(c1)N(Cc1ccccc1F)C(=O)c1ccccc1S2=O (configuration not stated) -18.1%
Cc1ccc(NC(=O)Cn2c(=O)nc(-c3ccccc3)c3ccccc32)cc1 -5.47%
CCCCNC(=O)CCn1nc(-c2ccc(Cl)cc2)c2ccccc2c1=O 11.6% [at 11.5 µM, percent change from vehicle, -100% = no light]
CCCCOc1ccc(CNC(=O)c2cnc3sc(N4CCCCCC4)nn3c2=O)cc1 -3.21%
Cc1c(C(=O)NCc2cccc(F)c2)oc2c1-c1[nH]ncc1CC2 -12.6%
Cc1cccc(C(=O)n2nc(-c3cccnc3)nc2NCc2ccc(F)cc2)c1 -1.35%
CC(=O)OCCN1C(=O)c2c(C)nc3ccc(S(=O)(=O)N4CCOCC4)cc3c2C1=O -7.49%
Cc1ccc(Nc2nc3ccccc3nc2-n2nc(C)cc2C)c(Cl)c1 -9.17%
CCc1cccc(N2C(=O)CS(=O)(=O)C23C(=O)N(Cc2ccccc2)c2ccc(C)cc23)c1 (configuration not stated) -22.6%
CSc1ccc(CNC(=O)c2sc3ncnc(N(C)C4CCCCC4)c3c2C)cc1 -23.2%
Cc1cccc(C(=O)N2c3ncnn3C3(CCCCC3)[C@@H]3CCCC[C@@H]32)c1 -31.8%
Cc1cccc(Nc2cc(C)nc(-n3nc(C)cc3C)n2)c1 -21.1%
CCOc1ccc(CN2C(=O)C(=O)c3cccc(C)c32)cc1OC -24.4%
Cc1c(C(=O)Nc2ccc(F)cc2)oc2ccc(S(=O)(=O)N3CCCCCC3)cc12 -29%
CCOC(=O)c1cccc(NS(=O)(=O)c2ccc(-c3coc(C)n3)cc2)c1 -12.4%
Cc1cc(C)c(NC(=O)C2CCN(C(=O)N3CCOc4ccccc43)CC2)c(C)c1 -24.2%
COc1ccc(-c2cc(C(F)(F)F)n3ncc(-c4ccccc4)c3n2)cc1 -11.4%
COC(=O)c1ccc2c(=O)n(CCc3ccc(S(N)(=O)=O)cc3)c(SCC(=O)C(C)(C)C)nc2c1 -1.34%
COc1ccccc1CNc1nc2ccccc2c2nc(-c3cccc(C)c3)nn12 23.8%
Cc1cccc(CCNC(=O)c2cc3c(=O)[nH]c4ccc(C)cc4c3s2)c1 -22.8%
CCn1cc(C(=O)NCCN(CC(C)C)CC(C)C)c(=O)c2cc(S(=O)(=O)N(C)C3CCCCC3)ccc21 -1.95%
COc1cc([N+](=O)[O-])ccc1NC(=O)N1CCC2(CC1)Nc1ccccc1-n1cccc12 -14.5%
COc1ccc2cc3cc(C(=O)N4CCN(c5cccc(C(F)(F)F)c5)CC4)sc3nc2c1 -14.8%
COc1ccc(-c2nc3sc(CCNC(=O)C(=O)Nc4cc(F)ccc4F)c(C)n3n2)cc1 3.06%
CCOCCCn1c(SCC(=O)NCc2ccccc2)nc2c(sc3ccccc32)c1=O -2.09%
COc1ccc(NC(=O)c2nnn(CC(=O)Nc3cccc(C)c3C)c2N)c(OC)c1 -20.9%
CCCCOc1ccccc1Cn1c(=O)sc2ccccc21 -10.4%
Cc1cccc(NC(=O)CN(C)S(=O)(=O)c2ccc3c(c2)CCC(=O)N3)c1C -9.46%
CCOc1ccc(C(=O)Nc2cccc(NC(=O)c3ccc(Cl)cc3Cl)c2)cc1 -1.37%
O=C1NCC2(CCN(CCc3ccccc3)CC2)O1 -5.11%
Nc1nc(NCCNc2ncc(-n3ccnc3)c(-c3ccc(Cl)cc3Cl)n2)ccc1[N+](=O)[O-] -29%
Cn1c(SCC(=O)Nc2nc3ccccc3s2)ncc(C(=O)Nc2ccc(Cl)cc2)c1=O 13.8%
CCOCCCNC(=O)c1cn(CC(C)C)c(=O)c2c1c1ccccc1n2C -4.69%
COc1cccc(NC(=O)Cn2nnc(C(=O)NCc3ccc4c(c3)OCO4)c2N)c1 -1.25%
CSc1ncc(Cl)c(C(=O)N(C)c2ccccc2)n1 -22.9%
CCN1CCN(c2ncc3c(n2)CCN(Cc2cccc(F)c2F)C3)CC1 -9.34%
COC(=O)c1ccccc1NC(=O)c1nn(C)c2c1COc1ccccc1-2 -4.74%
CN(C)c1cc(NC(=O)CNC(C)(C)C)c(O)c2c1C[C@@H]1C[C@H]3[C@H](N(C)C)C(=O)C(C(N)=O)=C(O)[C@@]3(O)C(=O)C1=C2O -11.2%
Cc1cc(C)c(NC(=O)CSc2nc(=O)n(Cc3cccnc3)c3c2CCC3)c(C)c1 -18.7%
COc1ccccc1Nc1ncc2c(n1)CCN(Cc1cc(F)cc(F)c1)C2 -15%
Cc1ccc(-c2c3c(=O)n(C)c(=O)n(C)c3c3cnc4ccccc4n23)cc1 -10.4%
Cc1ccc(S(=O)(=O)CC(=O)Nc2nc3c(C)cccc3s2)cc1 -8.01%
CSc1ccc(/C=C/c2nc3ccccc3n2S(=O)(=O)c2ccc(Br)cc2)cc1 -68.6%
CCOC(=O)c1c(C)[nH]c(C)c1S(=O)(=O)N1CCCC(C(=O)Nc2cccc(CC)c2)C1 (configuration not stated) -3.8%
CCOc1ccc(NC(=O)CCc2c(C)nc3nc(-c4cc(OC)cc(OC)c4)nn3c2C)cc1 -15.2%
COc1cccc(NC(=O)/C(C#N)=C/c2c(C)n(Cc3ccccc3)c3ccccc23)c1 -18.1%
CC(=O)N1CCc2cc(Br)cc(S(=O)(=O)NCCc3cccc(C)c3)c21 -9.66%
O=C(Nc1ccc(Cl)c(C(F)(F)F)c1)c1nc2ccccc2nc1N1CCCCC1 -40.6%
COc1ccc(-c2[nH]c3c(c2-c2c(-n4cccc4)n(C)c(=O)[nH]c2=O)c(=O)[nH]c(=O)n3C)cc1F -11.6%
COc1ccc(-n2nnc(-c3nsc(NC(=O)c4cccc(C)c4)n3)c2C)cc1OC -25.7%
COc1ccccc1Nc1nc(N)nc(N)c1S(=O)(=O)c1ccccc1 -11%
CC1=C(c2ccc(C)c(C)c2)S(=O)(=O)N=C1N1CCC(C(=O)NCc2ccc(N(C)C)cc2)CC1 -13%
Nc1c(-c2nc(-c3ccccc3Cl)no2)nnn1-c1ccccc1C(F)(F)F 23.3%
COc1ccccc1NC(=O)N1CCN(c2nnc(C)c3c(C)n(-c4ccccc4)nc23)CC1 -11.2%
O=c1c2oc3ccccc3c2n(Cc2ccccc2F)c(=O)n1Cc1ccc2c(c1)OCO2 -13.4%
CCN(CC)S(=O)(=O)c1ccc(NC(=O)c2c(C)oc3ncnc(N4CCCCC4)c23)cc1 -18.1%
CCN(CC)CCN(C(=O)c1ccco1)c1nc2ccc(F)cc2s1 2.05%
Cc1ccc(-c2nnc(SCC(=O)NCc3ccccc3)o2)cc1 -13.8%
CCCC(=O)N1c2ccccc2-c2nnc(SC)nc2OC1c1sccc1C (configuration not stated) 9.9% [at 11.5 µM, percent change from vehicle, -100% = no light]
Cc1ccc(C)c(N2CCN(S(=O)(=O)c3cc(C(=O)Nc4ccccc4C(F)(F)F)ccc3F)CC2)c1 -15%
CC(Oc1ccccc1)C(=O)Nc1c(C(=O)Nc2cccc(F)c2)oc2ccccc12 (configuration not stated) -1.77%
CCc1ccc(S(=O)(=O)Nc2cc3c(cc2C)n(C)c(=O)c(=O)n3C)cc1 -33.8%
CCOC(=O)c1c(NC(=O)COc2ccc(Cl)cc2Cl)sc2c1CCCCC2 1.61%
CN(C)c1ccc(CNC(=O)Cn2c(-c3cccs3)cc3cc(Cl)ccc32)cc1 -23%
CCOC(=O)c1[nH]c(C)c(CCC(=O)N2CCN(c3cc(C)ccc3C)CC2)c1C -39.3%
Cc1ccc2oc(=O)c3cnn(CC(=O)N4CCN(c5cccc(Cl)c5)CC4)c3c2c1 -2.53%
Cc1ccc(NC(=O)c2nc(S(=O)(=O)Cc3ccc(F)cc3)ncc2Cl)cc1C -69.2%
CCOc1ccc(OCC)c(NC(=O)CN(C)S(=O)(=O)c2ccc3[nH]c(=O)oc3c2)c1 -13.9%
Cc1cccc(C(=O)Nc2ccc3nc(SCC(=O)N4CCCC4)sc3c2)c1 -16.8%
O=C(CSc1nc(=O)[nH]c2c1CCC2)Nc1cc(C(F)(F)F)ccc1Cl -33.3%
Cc1cc(C(=O)NCCc2ccc(Cl)cc2)c2c(C)nn(-c3ccccc3)c2n1 1.89%
COc1cc(CNC(=O)c2ccc(NC(=O)N3CCCCc4ccccc43)cc2)cc(OC)c1OC -12%

From PubChem BioAssay AID1508624 (National Center for Advancing Translational Sciences (NCATS), 2021)
